Data: the RNAGym collection of RNA variant scans (doi:10.7554/elife.90254)
The source gives no read counts; variants with many changes may rest on few reads.

B1: LINE1-mini (parent)
chain: GGCAGAGCUCAACACAGCGUGGCAAAGUGGCUGUGGCUAGACUGCC

Variants of: B1
Test: self-cleavage, relative activity (ratio to wild type); higher = more cleavage; in vitro, sequencing; the parent is a self-cleaving ribozyme

| Variant | self-cleavage |
| --- | --- |
| GGCGCAGCUCAACAUAGCGUGGCAAAGUGGCUGUGGCUAGACUGCC | 0.09 |
| GGCGGAGCUCAACACACCUUGGCAAAGUGGCAGUGUCUAGACUGCC | 0 |
| GGCGGAGCUCAACACAGCGUGGGAAAGUGGCUAUGGCUAGACUGCC | 0.2 |
| GGCGGACCUCAACACAGCGUGGCAAGGUGGCUGUGGCUAGACUGCC | 0.11 |
| GGCGGAGCUCAACAGUGCGUGGCACAGUGGCUGUGGCUAGACUGCC | 0.25 |
| GGCGUAGCUCAACACAUCGUGGCAAAGUGGCUGUGACUAGACUGCC | 0.05 |
| GGCGUAGCUCAACACAGCGUGGCAAAGUGGCUGUGGCUAGACUACC | 0 |
| GGCGGAGCUCAACACAGCGUGGAAAAGUGACUGUGGCUAGACUGCC | 1.68 |
| GGCGGAGCUCAACACAGCGUGGGAUAUUGGCUGUGGCUGGACUGCC | 0.15 |
| GGCGGAGCUCAACAAAGCGUGGCAAAGUGGCUGUGGCUAGACUGGC | 0.08 |
| GGCGGAGCUCAACAUAGCGUGUCCAAGUGGCUGUGGCUAGACUGCC | 0.08 |
| GGCGUAGCUCUACACAGCGUGGCUAAGUGGCUGUGGGUAGACUGCA | 0.03 |
| GGCGGAGCUCAACACAGCGUGGCAAAGUGGAUGUGGCCAGUCUGCC | 0.01 |
| GGCGGAGCUCAACACAACGUGGCAAAGAGGCGGUGGCUAGACUGCC | 0 |
| GGCGAAGUUCAACACAGCGUGACAAAGUGGCUGUGGCUAGACUGCC | 0.06 |
| GGCGUAGCUCAACCCAGCGUGGCAAAGUGGUUGUCGCUAGACUGCC | 0.04 |
| GGCGGACCUCAACACAGCGUAGCAAAGUGGUUGCGGCUAGACGGAC | 0.03 |
| GGCGGACCUGAACACAGCCUGGCAAAGUGGCUGUGGCUAGACUGCC | 0.02 |
| GGCGGAGCUCAACACAGGGUGUAAAAGUGGCUGUGGCUAGACUGCC | 0.34 |
| GGCGAAGCUCAACACAGCGUGGCAAAGUGGCUGUGGCUAGACUGCA | 0.08 |
| GGCGGAACUCAACACAGCGCGGCAAAGUGGCUGUGGCUAGAUUGCC | 0.08 |
| GGCGGAGCUCAACACAACGUGGCAAAGUGGCGGUGGCUAGACUGCC | 0.04 |
| GGCGGAGCUCAACAUAGCGUAGCAAAGUGGCUGUGGCUAGACUGCC | 0.13 |

| Variant | self-cleavage |
| --- | --- |
| GGCGGAGCUCAACACAGCGUGGUAAAGUGGCUGUGGAUAGACUGCC | 0.02 |
| GGCGGACUUCAACACAGCGUGGCAGAGUGGCUGUGGCUAAACUGCA | 0.14 |
| GGCGGAUCUCAACACAGCCUGGCAAAGUGGCUGUGGCUAGACUGCC | 0.03 |
| GGCGGACCACAACCCAGCGUGGCAAAGUAGCUGUGCCAAGACUGCC | 0.22 |
| GGCGGAACUCGACACAGCGUGGCAAAGUGGCUGUGGCUUGACUGCC | 0.03 |
| GGCGGAGCUCAAUACAGCGAGGAAAAGUGGCUGUGGCUAGACUGCC | 0.08 |
| GGCGUAGCUCAACACAGCGUGGUAAAGUGGCUGUGGCUAGACUGCC | 0.08 |
| GGCGGAGCUCAACAGUGCGUGGCAAAGUGGCUGUGGCUAGACUGGC | 0.01 |
| GGCGCAGCUCAACACAGCGUGGCAAAUUGGCUGUGGCUAGCCUGCC | 0.24 |
| GGCGGAACGCAACACAUCGUGGCAAACCGGAUGUGGCUAGACUGCC | 0.06 |
| GGCGUAGCUCAACACAGCGUGGCAAAGUGGCUCUGGCAAGACUGCC | 0.02 |
| GGCGCAGCUCAACACAGCGUGGCAGAGUGGCUGUGGCUAGACUGCC | 0.04 |
| GGCGGAGCUCAACACAGCGUGGAAAGGUGGCUGUGGCUAGACUGCC | 0.21 |
| GGCGGAGCUCAACAACGCGUGGCAAAGUGGCUAUGGCUAGACUGAC | 0.02 |
| GGCGAAGCUCAACACAGCGUGGCAAAGUGGCUGUGGCUAGACUGGC | 0.07 |
| GGCGAAGCUCAACACUGCGUGGCAAAAUGGCUGUGGCUAGACUGCC | 0.2 |
| GGCGAAGCUCAACACAGCGUGGCAAAGUGUCUCUGGCUAGACUGCC | 0.04 |
| GGCGGACCUCAACAUAGCGUGGCAAAGUGGCUGUGGCUAGACUGCC | 0.07 |
| GGCGGAUGUCAACACAGCAUGGCAAAAUGGAUGUGGCUAGACUGCC | 0.09 |
| GGCGAAGCUGAACACAGCGUGGCAAAGUGGCUGUGGCUAGACUGCC | 0.02 |
| GGCGCAGCUCAACACAGCGUGGCAAAGUGGCUGUGGCUAGACUGCG | 0.04 |
| GGCGUAGCUCAACACAGCGUGGGAAAGUGGCUUUGGCUAGACUGCC | 0.05 |
| GGCGUAGCUCAACACAGCGUGGCAAAGUGGCUGUCGCUAUACUGCC | 0.06 |

| Variant | self-cleavage |
| --- | --- |
| GGCGUAGCUCAACACAGCGUGGCAAAGUGGCUGUGGCUAGACUGCU | 0.1 |
| GGCGAAGCUCAACACAGCAUGGCAAAGUGGCUCUAGCUAGACUGCC | 0.03 |
| GGCGGAGCUCAACAAAACGUGGCAAGGUGGCUGUGGCUAGACUGCC | 0.05 |
| GGCGGAGCUCAACAGAGCGAGCCAAACUGGCUGUCGCUAGACUGCC | 0.01 |
| GGCGGAGCUCAACACAGCGUGGAAAAGUGGUUGUGGCUAGAAUGUC | 0.12 |
| GGCGCAGCUCAACAUAGCGUGGCAAAGUGGCCAUGGCUAGACUGCC | 0.04 |
| GGCGGAACUUAACACAGCGUGGCACAGUGGCUAGGGCUAGACUGCC | 0.05 |
| GGCGUAGCUCAACACAGCGUGACAAAGUGGCUGUGGCUAGACUGCG | 0.03 |
| GGCGGAGCUCAACAGAGUUUGGCAAAGUGGCUGUGGCUAGACUGCC | 0.04 |
| GGCGGAGCUCAACACAGGGUGGCAACGUGGCUGUGGAUAGACUGCC | 0.13 |
| GGCGUAGCUCAACUCAGCGUGGGAAAGUGGCUGUGGCUAGACUGCU | 0.06 |
| GGCGCAGCUUACCUCAGCGUGGCAAAGUGCCUGUCGCUAGACUGCC | 0.01 |
| GGCGGAACUCACCAAAGCGUGGCAAAGGGGCUGUGGCUAGACUGAC | 0.01 |
| GGCGGAGCUCAACACAGUGUGGCUAAGUGGCUGUGGCUAGGCUGCC | 0.08 |
| GGCGGAACUCAACACAGCGUGGCAAAGUGGCUGUGCCUAUACUGUC | 0.06 |
| GGCGUAGCUGAACACAUCGUGGCACUGUGGCUGUGGCUAGACUGGC | 0.01 |
| GGCGGAGCUCAACACAGCGUGGUUAGAUGGCUGUGGCUAGACUGCC | 0.11 |
| GGCGCCGCUCAACACAGCGUGGCAAAGUGGCUGUGGCUAGACUGAC | 0.24 |
| GGCGGAGCUCAACAUACCGUGGCAAAGUGGCAGUGGCUAGACUGCC | 0.28 |
| GGCGGAGCUCAACACAGCGUGGCAAAGUGGAUGUAGCUAGACUGCC | 0.04 |
| GGCGUAGUUCAACUCAGCGUGGAAAAGUGGCUGUGGCUAGACUGCC | 0.06 |
| GGCGUAGCUCAACACAGCCUGGCAUAGUGGCUGUGGCUACACUGCC | 0.02 |
| GGCGGAGCUCAACACAGCGUGGUAAAGUGGCUGUGCCUAGACUGCC | 0.07 |

| Variant | self-cleavage |
| --- | --- |
| GGCGCAGCUCAACACAGCGUGGCAAAGUGGCUGUGCCUAGACUGCC | 0.14 |
| GGCGAAGCUCAACACAGGGUGGCAAAGUGGCUGUGGCUAGACUGCC | 0.03 |
| GGCGGAGCUCAACACAGAGUGGCAAAGUGGCUUUGGCUAGACUGCC | 0.13 |
| GGCGAAGCUCGACACAGCGUGGCAAAGUGGCUGUGGCUAGUCUGCC | 0.01 |
| GGCGGAACUCAACACAGCGUGGCAAAGUGGCUGUGGCGGGAAUGCC | 0.02 |
| GGCGGACCUCAACACAGCGUUGAAAAGUGGCUGUGGCUAGACUGCC | 0.05 |
| GGCGGACCUCAACACAGCGUGGCACAGUGGCUGUAGCUAGACUGCC | 0.05 |
| GGCGGAUCUCAACACAGCGUGGCAAACUGGCUGUGGCUAGACUGCC | 0.08 |
| GGCGGAUCUCAACACAGCGUGGCAAAGUGGAUGUGGCUAGACUGCC | 0.25 |
| GGCGCAGCUCAACACAGCGGGGCAAAGUGGCUGUGGCUAGACUGCC | 0.08 |
| GGCGAAGUUCAACACAGCGUGGCAAAGUGGCUGCGGCUAGAAUGCC | 0.15 |
| GGCGGAGCUCAACACAGUGUGCCAGAGUGGCUGUGGCUAGACUGCC | 0.17 |
| GGCGGAGCUCAACAAAGCCUGGCAAAGUGGCUGUGGCUAGACUGAC | 0.14 |
| GGCGGAGCUCAACAAAGCGUGGCAAAGUGGCUGUUGCUAGACUGCC | 0.07 |
| GGCGGAGCUCAACACAGAGUGGCAAAGUGUCUGGGGAAAGACUCCC | 0.01 |
| GGCGGAGCUCAACACAGCGUGGGAAAGUAGCUGUGGCUAGACUGCC | 0.27 |
| GGCGUAGCUCAACACAGCGUGGCAAAGUGGCUGUGGCUAGGCUGCC | 0.05 |
| GGCGGAUCUCAACACAGCGUGGCAAAGUGGCGGUGGCUAUACUGCC | 0.33 |
| GGCGGAGCUCAACACAGUGUGCCAGACUGGCUGUGUCUAGACUGCC | 0.05 |
| GGCGGAGCUCAACACAACGUGGCAAAGUGGCUGUGGUUAGACUGCC | 0.02 |
| GGCGGAGCUCAAUACAGCGUGGCAAAGCGGCUGUGGCUAGACUGCC | 0.06 |
| GGCGGAGCUCAACAGAGCGUGGCAGAGUGGCUGUGGCUAGACUGCG | 0.02 |
| GGCGGAGCUCAACACAACGUGGCAAAGUGGCUGAGGCUAGACUGCU | 0.12 |

| Variant | self-cleavage |
| --- | --- |
| GGCGUGGCUCAACUCAGCGUGGCAAAGUGGCUGUGGCUAGACUGCC | 0.1 |
| GGCGCAGCUCAACACAGCGUGGCAAAGUGGCUGUGGUUAGACUGCC | 0.07 |
| GGCGUAGCUCAACACAGCGGGGCAAAGUGGCUGUGGCUUGACUGUC | 0 |
| GGCGGAGCUCAACACAGGGUGGCACAGUGGCUGUGGCUAGACUGCC | 0.04 |
| GGCGGAGCUCAACACAGCGUGGAAAAAUGGCAUUGGCUAGACUGCC | 0.56 |
| GGCGGAGCUCAACAUAGCGUGGCAAAAUCGCUGUGGCUAGACUGCC | 0.45 |
| GGCGUAGCUCAACACAGCGUGGCAAAGUGGCAGUGGCUAGACUGCC | 0.04 |
| GGCGGAGCUCAACACAGCGUGGCAAAGUGGCUGUGGGUAGACUGCU | 0.12 |
| GGCGGAGCUCAACACAGAGUGGCAAAGAGGCUGUGGCUAGACUGCC | 0.72 |
| GGCGGAACUCAACAAAGCGUGGCAAAGUGGCUGUGGCUAGCCUGCC | 1.17 |
| GGCGUAGCUCAAGACAGCGUGGCAAAGUGGCUGUGGCUAGACCGCC | 0.02 |
| GGCGGAUCUAAACACAGCGUGGCACAGAGGCUGUGGCUAGACUGUC | 0.02 |
| GGCGGACCUCAAGACAGCCUGGCAAACUGGCUGUGGCUAGACUGCC | 0.02 |
| GGCGGAGCUCAACACAGGGUGGCAAAGUGGCUGUGACUAGACUACC | 0.05 |
| GGCGGAUCUCAACACAGCGCGUCUAAGUGGCUGUGGCUAGACUGCC | 0.01 |
| GGCGGAGCUCAACACAGCGUGGCAAAGUGGCUGUGGAUAGGCUGUC | 0.04 |
| GGCGAAGCUCAAGACAGCGUGGCAAAGUGGCUGUGGCUAGACUGCC | 0.06 |
| GGCGAAGCUAAACACAGAGUGGCACAGUGGCUGUGGCUAGACUGCC | 0.03 |
| GGCGGAGCUCAACACAGCGUGGGAGAGUGGCUGUGGCUAGACUGCC | 0.12 |
| GGCGUAGCUCAACACAGCGUGGCAAAGUGACUGUGGCUAGACUGCC | 0.03 |
